Test results reported in patent publication US20150071918A1 (H LEE MOFFITT CANCER CENTER AND RESEARCH INSTITUTE, published 2015).

Target: T1, CD44 (endogenous, of NCI-H929, U266, U937 and HL-60 cells) (human, UniProt P16070 21-742)
T1 construct: Endogenous protein: from membrane extracts/lysates in the pull-downs, on whole cells in the confocal work; Isoform not determined (pan-CD44 antibody; cells are said to express CD44s, CD44v3 and CD44v9); also called glycoprotein adhesion receptor CD44
Experiment: pull-down from H929 membrane extract with biotin on NeutrAvidin beads, western blot with a pan-CD44 antibody

T1 sequence (P16070 21-742 limits assumed): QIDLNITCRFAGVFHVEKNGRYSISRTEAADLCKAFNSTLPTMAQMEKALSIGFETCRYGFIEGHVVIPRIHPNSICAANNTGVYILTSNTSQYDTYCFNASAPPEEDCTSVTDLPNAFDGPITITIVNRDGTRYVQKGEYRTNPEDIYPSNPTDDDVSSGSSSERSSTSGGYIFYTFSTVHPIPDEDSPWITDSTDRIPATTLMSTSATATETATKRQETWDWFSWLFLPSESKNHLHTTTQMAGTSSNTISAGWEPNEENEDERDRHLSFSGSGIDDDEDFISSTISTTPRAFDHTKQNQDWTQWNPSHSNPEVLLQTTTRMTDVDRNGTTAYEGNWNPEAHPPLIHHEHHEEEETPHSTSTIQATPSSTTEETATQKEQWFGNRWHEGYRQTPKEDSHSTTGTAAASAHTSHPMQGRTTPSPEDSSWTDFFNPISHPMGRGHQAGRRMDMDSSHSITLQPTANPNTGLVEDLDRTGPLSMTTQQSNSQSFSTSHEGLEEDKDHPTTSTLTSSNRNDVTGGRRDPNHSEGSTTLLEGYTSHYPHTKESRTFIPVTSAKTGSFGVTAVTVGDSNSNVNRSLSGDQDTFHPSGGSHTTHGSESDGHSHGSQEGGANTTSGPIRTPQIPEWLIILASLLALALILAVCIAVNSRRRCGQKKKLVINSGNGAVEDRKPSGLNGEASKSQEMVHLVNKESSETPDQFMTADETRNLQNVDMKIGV

B1: biotin-coated NeutrAvidin (control) (other, UniProt P02701 25-152, looked up)
chain: ARKCSLTGKWTNDLGSNMTIGAVNSRGEFTGTYITAVTATSNEIKESPLHGTQNTINKRTQPTFGFTVNWKFSESTTVFTGQCFIDRNGKEVLKTMWLLRSSVNDIGDDWKATRVGINIFTRLRTQKE
modifications: biotin bound (non-covalent)
notes: also called Biotin-coated NetraAvidin
B1: no binding (tested: 30 ug membrane extract (legend)).
